Measured values published in the supplement of paper PMC10600219.
Counter-ions that a name gives are not always drawn. In all, about 2,800 compounds were measured (“cell viability relative to vehicle”: median about 0.98, lowest 2% from about 0.45 on). Some of the results follow.

Tested on: NCI-H2228 alectinib-DTP
Assay: cell viability relative to vehicle (fraction of vehicle); NCI-H2228 is an ALK-positive lung cancer line and DTP means drug-tolerant persister; higher = less growth inhibition
Settings: 100 nM; treatment time 6 days
Outline: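 Parental NCI-H2228 cells and drug-tolerant persister cells (made with 1000 nM of a targeted drug for 13 days) were seeded in 384-well plates. The next day, the 3114-agent TargetMol anti-cancer compound library was added at 100 nM, with DMSO as vehicle. After 6 days, ATP was read with the CellTiter-Glo 3D Cell Viability Assay. Each value is cell viability relative to vehicle-treated cells.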

Compared with `C=C(C)[C@@H]1CC=C(CO)CC1` [Perillyl alcohol], `C[C@@H]1CC[C@]2(C(=O)O)CC[C@]3(C)C(=CC[C@@H]4[C@@]5(C)CC[C@H](O)[C@@](C)(CO)[C@@H]5CC[C@]43C)[C@@H]2[C@]1(C)O` [Rutundic acid] is lower in cell viability: 1.16 for the first, 1.02 for the second.

Compared with `CN(C)CC(c1ccc(O)cc1)C1(O)CCCCC1` (stereo unspecified) [Desvenlafaxine], `COc1cc(O)c(CC=C(C)C)c2c1C(=O)CC(c1ccc(O)cc1)O2` (stereo unspecified) [Isoxanthohumol] is higher in cell viability: 0.779 for the first, 1.15 for the second.

Compared with `O=C(NOCC(O)CO)c1cc(Br)c(F)c(F)c1Nc1ccc(I)cc1F` (stereo unspecified), `O=C(Nc1cc(C(F)(F)F)ccc1O)Nc1cc(C(F)(F)F)ccc1O` is lower in cell viability: 0.907 for the first, 0.826 for the second.

Compared with `O=C(O)COc1ccc(Br)cc1/C=C1\SC(=S)N(Cc2cccnc2)C1=O` [Skp2 Inhibitor C1], `Nc1ccccc1NC(=O)c1ccc(CNC(=O)OCc2cccnc2)cc1` [Entinostat] is lower in cell viability: 1.08 for the first, 0.764 for the second.

First: Cc1ccc2nc(N)[nH]c(=O)c2c1Sc1ccncc1 [Nolatrexed]
Second: COC(=O)Nc1nc2cc([S+]([O-])c3ccccc3)ccc2[nH]1 (stereo unspecified) [Oxfendazole]
The cell viability of the first is lower: 1.13 for the first, 1.22 for the second.

First: CC(C)c1c(-c2ccccc2)nc2c(C#N)c[nH]n2c1=O
Second: N#Cc1c(NC(=O)c2cccc3ccccc23)sc2c1CCCC2
The cell viability of the first is higher: 1 for the first, 0.789 for the second.

First: O=C(Nc1ccccc1Br)N[C@@H]1CCN(c2ccc(C(F)(F)F)cn2)C1
Second: O=C(c1ccccc1)c1ccc2n1CCC2C(=O)O (stereo unspecified) [Ketorolac tromethamine salt]
The cell viability of the first is lower: 1.04 for the first, 1.12 for the second.

Compared with `Cc1ccccc1C(C(=O)NC1CCCCC1)N(C(=O)Cn1cnc2ccccc21)c1cccc(F)c1` (stereo unspecified), `NC(=O)Cc1cccc(C(=O)c2ccccc2)c1N` [Nepafenac] is lower in cell viability: 1.18 for the first, 1.04 for the second.

Compared with `COc1c(N2CCNC(C)C2)c(F)cc2c(=O)c(C(=O)O)cn(C3CC3)c12` (stereo unspecified) [Gatifloxacin], `CCC(=O)N1CCOc2c(cc(-c3ccc(OC)c(OC)c3)cc2OC[C@H]2CCCN(C)C2)C1` [I-CBP112 hydrochloride] is higher in cell viability: 0.927 for the first, 0.963 for the second.

Compared with `O=C(C[S+]([O-])Cc1ccco1)NC/C=C\COc1cc(CN2CCCCC2)ccn1` (stereo unspecified) [Lafutidine], `CCc1cncnc1N1CCN(Cc2nc3ccc(C(F)(F)F)cc3[nH]2)CC1` is lower in cell viability: 1.06 for the first, 1.01 for the second.

Going from `CCC(=O)O[C@]1(C(=O)CO)CC[C@H]2[C@@H]3CCC4=CC(=O)CC[C@]4(C)[C@H]3CC[C@@]21C` [17 alpha-propionate] to `CC(C)C(C)C(O)C(O)C(C)C1CCC2C3COC(=O)C4CC(O)C(O)CC4(C)C3CCC12C` (stereo unspecified) [Brassinolide], the cell viability rises from 0.936 to 1.01.

Compared with `CCC(=O)Nc1cccc(Oc2nc(Nc3ccc(N4CCN(C)CC4)cc3OC)ncc2Cl)c1`, `COc1cc(N2CCC(N3CCN(C)CC3)CC2)ccc1Nc1ncc(Cl)c(Nc2ccccc2P(C)(C)=O)n1` [Brigatinib] is lower in cell viability: 1.16 for the first, 0.754 for the second.

Compared with `C=CC(=O)Nc1cccc(Nc2nc(Nc3ccc(OCCOC)cc3)ncc2F)c1` [Spebrutinib], `CNC(=O)c1ccccc1Nc1nc(Nc2ccc3c(c2OC)CCC[C@H](N2CCN(CCO)CC2)C3)ncc1Cl` is higher in cell viability: 0.774 for the first, 0.86 for the second.

Compared with `Nc1ccn([C@@H]2CS[C@H](CO)O2)c(=O)n1` [Lamivudine], `O=C1NCCCc2c1oc1ccc(O)cc21` is lower in cell viability: 1.09 for the first, 0.924 for the second.

First: CCc1c(Cl)c(O)c(Cl)c(O)c1C(=O)O[C@H]1[C@H](O)[C@H](OC)[C@H](OC/C2=C\C=C\C[C@H](O)/C(C)=C/[C@H](CC)[C@@H](O[C@@H]3OC(C)(C)[C@@H](OC(=O)C(C)C)[C@H](O)[C@@H]3O)/C(C)=C/C(C)=C/C[C@@H]([C@@H](C)O)OC2=O)O[C@@H]1C [Fidaxomicin]
Second: CC[C@H]1OC(=O)[C@H](C)[C@@H](O[C@H]2C[C@@](C)(OC)[C@@H](O)[C@H](C)O2)[C@H](C)[C@@H](O[C@@H]2O[C@H](C)C[C@H](N(C)C)[C@H]2O)[C@](C)(OC)C[C@@H](C)C(=O)[C@H](C)[C@@H](O)[C@]1(C)O [Clarithromycin]
The cell viability of the first is higher: 1.05 for the first, 1.01 for the second.

`Cc1cc(N)c2ccccc2[n+]1CCCCCCCCCC[n+]1c(C)cc(N)c2ccccc21` [Dequalinium chloride] and `CCCC[S+]([O-])c1sc2nc(-c3cccs3)cc(-c3ccccc3)c2c1N` (stereo unspecified) are the same in cell viability: 1 for the first, 1 for the second.

First: COc1ccccc1OCC(O)COC(N)=O (stereo unspecified) [Methocarbamol]
Second: CCOc1cc([C@@H](CS(C)(=O)=O)N2C(=O)c3cccc(NC(C)=O)c3C2=O)ccc1OC [Apremilast]
The cell viability of the first is lower: 0.947 for the first, 0.967 for the second.

Going from `O=C1N[C@@H](Cc2c[nH]c3ccccc23)C(=O)N2CCC[C@@H]12` [Brevianamide F] to `CCCCC1=NC2(CCCC2)C(=O)N1Cc1ccc(-c2ccccc2-c2nnn[nH]2)cc1` [Irbesartan], the cell viability falls from 1.06 to 0.724.

Going from `C[C@H]1COC2=C1C(=O)C(=O)c1c2ccc2c1CCCC2(C)C` [Cryptotanshinone] to `COc1ccc2ccc(=O)oc2c1` [Herniarin], the cell viability rises from 0.78 to 1.2.

Compared with `CN(C)CC[C@H](CSc1ccccc1)Nc1ccc(S(=O)(=O)NC(=O)c2ccc(N3CCN(Cc4ccccc4-c4ccc(Cl)cc4)CC3)cc2)cc1[N+](=O)[O-]`, `CN(C)C(=O)COC(=O)Cc1ccc(OC(=O)c2ccc(NC(=N)N)cc2)cc1` [Camostat mesilate] is lower in cell viability: 1.09 for the first, 0.956 for the second.

Compared with `COc1ccc(-c2coc3cc(O[C@@H]4O[C@H](CO)[C@@H](O)[C@H](O)[C@H]4O)ccc3c2=O)cc1` [Ononin], `COc1cc(/C=C/C(=O)OC[C@H]2O[C@H](O[C@]3(CO)O[C@H](CO)[C@@H](O)[C@@H]3OC(=O)/C=C/c3cc(OC)c(O)c(OC)c3)[C@H](O)[C@@H](O)[C@@H]2O)cc(OC)c1O` [3,6'-Disinapoyl sucrose] is lower in cell viability: 1.03 for the first, 0.873 for the second.

Compared with `O=[N+]([O-])c1ccc2c(c1)S(=O)(=O)C=C2` [Stattic], `O=C(O)CCc1ccc(O)cc1O` [Hydroumbellic acid] is lower in cell viability: 1.03 for the first, 0.883 for the second.

Going from `c1ccc(CNc2ccccc2)cc1` [N-Phenylbenzylamine] to `N=C(N)NC(=O)c1nc(Cl)c(N)nc1N` [Amiloride hydrochloride], the cell viability falls from 1.23 to 1.11.
